# The full ranking holds about 33,000 sequences; the median of “E-score (-0.5 to 0.5)” is about -0.035, and the highest 2% start at about 0.35. Some of the results follow.
# Target: T1, Pdr3 (UniProt P33200)
# T1 sequence: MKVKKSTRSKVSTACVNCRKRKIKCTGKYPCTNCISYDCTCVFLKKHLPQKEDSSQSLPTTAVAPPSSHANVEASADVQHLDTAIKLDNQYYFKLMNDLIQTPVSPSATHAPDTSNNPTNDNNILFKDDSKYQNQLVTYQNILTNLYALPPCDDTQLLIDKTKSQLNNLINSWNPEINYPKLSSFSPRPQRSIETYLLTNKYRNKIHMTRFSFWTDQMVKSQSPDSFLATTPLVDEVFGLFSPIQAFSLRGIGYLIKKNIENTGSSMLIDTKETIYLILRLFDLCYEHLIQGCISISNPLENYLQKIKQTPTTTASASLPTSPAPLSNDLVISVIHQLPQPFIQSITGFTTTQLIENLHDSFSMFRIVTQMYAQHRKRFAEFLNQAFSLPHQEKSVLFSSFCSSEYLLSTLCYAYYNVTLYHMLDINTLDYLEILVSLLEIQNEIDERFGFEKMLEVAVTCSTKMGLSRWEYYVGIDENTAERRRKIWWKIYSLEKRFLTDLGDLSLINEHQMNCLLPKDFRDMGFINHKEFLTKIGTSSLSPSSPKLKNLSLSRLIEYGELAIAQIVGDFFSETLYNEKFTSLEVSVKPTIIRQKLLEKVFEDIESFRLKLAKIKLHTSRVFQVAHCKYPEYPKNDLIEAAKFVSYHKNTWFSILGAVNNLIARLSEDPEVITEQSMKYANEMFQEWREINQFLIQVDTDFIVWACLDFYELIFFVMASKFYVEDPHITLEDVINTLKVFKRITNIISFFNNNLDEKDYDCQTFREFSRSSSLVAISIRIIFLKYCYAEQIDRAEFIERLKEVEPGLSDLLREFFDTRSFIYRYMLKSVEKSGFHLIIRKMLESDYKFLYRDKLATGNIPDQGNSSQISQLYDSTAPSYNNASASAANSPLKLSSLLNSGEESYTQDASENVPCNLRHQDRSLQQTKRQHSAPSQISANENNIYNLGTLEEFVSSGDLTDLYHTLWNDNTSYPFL
# Experiment: PBM E-score (8-mer binding enrichment) (E-score (-0.5 to 0.5)); higher = stronger / more preferred TF binding; most listed sequences are background and not binding sites
# Conditions: protein concentration: 200 nM; construct: GST-full length
# How it was run: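 The E-score, a modified Wilcoxon-Mann-Whitney statistic, was computed by the Universal PBM Analysis Suite for every ungapped eight-base word pooled with its reverse complement. Scans behind it were normalised with masliner after bound GST-tagged yeast transcription factors were detected with fluorescent anti-GST. The proteins, at about 100-200 nM, had been applied to universal all-10-mer Agilent arrays made double-stranded by primer extension.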
row,Sequence,PBM E-score
1,GGCGAATA,0.176
2,GCACTAAA,0.108
3,GTTAACGA,-0.135
4,ACTGGACG,-0.0828
5,CAGCTGGA,-0.0501
6,CTATCACC,-0.0837
7,AGATCCCA,-0.114
8,AGACGCTC,-0.23
9,CTTCTTGA,-0.153
10,CTTTACAA,-0.0727
11,AAATACGT,-0.122
12,CTCTGCGA,-0.174
13,CTCGTTAC,-0.257
14,TATGTCGA,-0.0353
15,AAGGCTCC,-0.268
16,CCGACCCC,-0.0229
17,AACGAACG,0.0925
18,CTTGTCTA,-0.107
19,AGGACAGG,-0.217
20,CAAAAATG,0.119
21,AAAGGTTG,-0.0419
22,CCTGACGC,-0.129
23,AACTATGG,-0.186
24,GCTAGGCC,-0.0738
25,AGTATTAT,-0.335

row,Sequence,PBM E-score
1,AGAACTTC,-0.00865
2,CTATTTGA,0.0111
3,GAAGATAC,0.0529
4,TAATGTCA,-0.0566
5,CCCACCCA,0.073
6,AACTAGGA,-0.125
7,CTTCCAAA,-0.155
8,CGGAGCTC,0.321
9,AACAAATG,-0.0854
10,CCTTTTAC,-0.0322
11,ACTTAGAT,0.0153
12,GGACATAC,0.246
13,ATGCAGAC,0.0172
14,TCAGGCAA,-0.124
15,CCCATGAA,0.0372
16,CAGCTAGA,-0.177
17,AACGTTTG,-0.0262
18,CATAGAAC,-0.0427
19,AGATAACA,-0.115
20,GTGCTCTA,-0.135
21,CCCGCGAA,0.206
22,ATCGTAAG,-0.0413
23,AGTAAAAC,-0.205
24,ACTGCCGC,0.21
25,CGTGCATC,-0.0624

row,Sequence,PBM E-score
1,GAAGATCC,0.0596
2,GCAGGACA,-0.00064
3,CCTCGCTA,-0.245
4,CTGTTACA,-0.0948
5,ATATAAGA,0.0664
6,ACCCGTTA,0.13
7,AAATAAGA,-0.0404
8,CTCAAGGA,-0.022
9,AAGCGCTG,0.12
10,TCAGCCGA,0.153
11,ACCCATAG,-0.237
12,AAGACCTC,-0.134
13,AGTGATAA,-0.12
14,AAGATTCG,0.108
15,GCTTAAGA,-0.038
16,AAAGCAAG,0.122
17,AGCTAACG,-0.207
18,CAATGCTA,-0.161
19,CGTTTGCA,0.0843
20,CCGCTCGC,0.277
21,CAAGGAAC,0.161
22,AGGCCAAA,0.0479
23,CTGTCGAA,-0.161
24,TAGGGGCA,-0.206
25,CTTTAAAC,-0.159

row,Sequence,PBM E-score
1,CGGATGAA,0.31
2,GCTCTTCA,-0.14
3,CATACTCA,-0.0349
4,AACCCGGC,0.289
5,AGTCGGGA,0.188
6,GACTGCGC,0.015
7,CCATAGCA,-0.114
8,ATAAAACA,-0.0575
9,ACCTCGTA,0.0191
10,CGCCACAC,0.0531
11,CTCAAACC,-0.0558
12,AATGGCGG,0.229
13,ATGCTGCG,-0.159
14,CCATCTTA,-0.108
15,CACAGTAG,-0.204
16,CGAGGGAG,0.0672
17,ACTAGTTG,-0.139
18,GTACAGAC,-0.254
19,AATCGGTC,0.227
20,CCCTCTGC,-0.316
21,CCGATACA,0.206
22,ATGTAGAG,-0.0921
23,ATCCATCG,-0.00715
24,CCCTCTAG,-0.273
25,CACAATGA,-0.0245

row,Sequence,PBM E-score
1,CAAAATTG,-0.0531
2,AAGTCTGG,-0.229
3,ATCATATG,-0.0169
4,CAGCAGCA,-0.0603
5,AGTCTGCA,-0.227
6,GATAACGA,-0.0144
7,GACTCGCA,-0.113
8,CGGCAGCA,0.109
9,TCGTGGCA,-0.129
10,CGACTTCC,0.135
11,GCGCTTAA,-0.0159
12,GCGTCTAA,-0.25
13,AAATACTC,0.0144
14,AGGTCGCG,0.098
15,ACCTACCA,-0.181
16,CGAGAGGC,-0.119
17,CGCTAGAA,-0.182
18,ATGGCGGG,0.298
19,ATGGGCGA,0.0465
20,ACTATGAA,-0.136
21,CGCAGCTC,-0.0701
22,GTCCGCAA,0.259
23,ATGGCAGG,0.191
24,GGAGTCAC,-0.0786
25,GCCTTTCA,-0.0759

row,Sequence,PBM E-score
1,AGACAAGG,-0.16
2,GAGCTTGA,-0.0385
3,CGGAACCC,0.477
4,AGAGAAGG,-0.0862
5,ATTGAATC,-0.106
6,ATTTCACG,0.0732
7,AGACTAAG,-0.174
8,ACTTATCC,0.177
9,AGTTGAGG,0.0177
10,GCCTGGAC,-0.0556
11,AAGGTTTC,-0.00441
12,ACCTGCTA,-0.188
13,CATTTGTC,-0.0826
14,GTAGAGGA,-0.139
15,GCCAGAGA,-0.0394
16,CATGAGGG,-0.0553
17,ACCCTCGG,0.156
18,CATACTGA,-0.136
19,GACATACA,0.211
20,ACTAACTG,-0.106
21,CCATAACG,-0.0278
22,GAGCCTGA,-0.178
23,GGAAAATA,0.299
24,AACGTCTA,-0.139
25,GAAGGTTA,-0.062

row,Sequence,PBM E-score
1,CCCTTGAG,-0.135
2,GCCACTGA,-0.015
3,ATAACTTC,0.0689
4,AAGGAGGA,-0.184
5,AAATTCTC,0.0766
6,GCATGGGA,-0.0349
7,CGACCTGA,-0.129
8,GATCCCAA,0.0388
9,CCTATTGC,-0.18
10,AAATACCT,0.0069
11,AACGCCGT,0.00403
12,AATCAGCG,0.213
13,ACACTGGA,-0.0404
14,GCTGTATA,-0.296
15,ATCACACG,-0.0253
16,ATTCTGAA,-0.0569
17,CGGTTTGA,0.0259
18,CACCGCGC,0.166
19,AAGTTTAG,-0.175
20,AGGGTTTG,-0.00234
21,AAGACTGC,-0.254
22,ACACAGCA,-0.00473

# Source: the supplement of paper PMC3334620
